Reference: PubChem BioAssay AID662 (National Center for Advancing Translational Sciences (NCATS), 2007)
The whole screen tested about 71,000 compounds, of which about 1,800 (2.5%) were called active. The shares of active, inactive and inconclusive entries below differ from those in the screen. Calls come from the whole dose curve; as a rule, active = well fitted activation curve with a large enough effect in the signal ratio, with a control signal flat (not every such curve was filed as active); inconclusive = small, poorly fitted or top-dose-only effect, or effect the other way, or a change in a side signal; inactive = flat fitted curve, though single readings scatter; the % refers to the signal ratio. Where the call is inconclusive, the potency comes from a doubtful curve fit.

Assay: Cell signaling CRE-BLA (Fsk stim); for activity change, negative = inhibition: % of control where 0% means no effect
Details: CHO CRE-bla reporter (cAMP response element driving beta-lactamase), forskolin EC10, beta-lactamase ratio; activity change, negative = inhibition: at 38.2 µM (top of the series) unless noted
Summary of the method: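 Titrated compounds plus EC10 NKH 477 on CHO CRE-bla cells, 3 h, 37 °C. CCF4, 2 h RT. Ratio 460/530 nm → AC50.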
Potency is the fitted concentration of half-maximal effect; tags give direction and shape of the fitted curve.

Row | Compound | activity change, negative = inhibition | Potency
1 | Cc1ccc(-c2nc3ncccn3c2Nc2ccc3c(c2)OCCO3)o1 | inconclusive: -21.9% | 
2 | CCc1nc(SCC(=O)Nc2cc(C)on2)n[nH]1 | inactive: -2.03% | 
3 | CCOC(=O)c1ccc2[nH]c3c(c2c1)CCCCC3=O |  | inconclusive: 12.6 µM [rising, partial curve]
4 | COc1ccccc1-n1c(SCC(=O)Nc2nnc(C)s2)nc2c(c1=O)SCC2 | inconclusive: 20.2% | 
5 | O=C(c1ccc(Cl)cc1)N1CCN(c2nc(N3CCCCC3)nc(N3CCCCC3)n2)CC1 |  | inconclusive: 0.01 µM [falling, full curve, poor fit]
6 | CCCN=C(N)NCCC[C@H](N)C(=O)O | inactive: 2.75% | 
7 | COc1ccc(N2C(=O)CCC(C(=O)c3ccccc3)=C2C)cc1 | inconclusive: 26.7% [at 7.6 µM] | 
8 | O=C(c1csnn1)N1CCC[C@@]2(CCN(c3ncccn3)C2)C1 | inactive: 4.97% | 
9 | CCc1ccc2[nH]c(=O)c(CN(Cc3ccccc3)Cc3nnnn3Cc3ccco3)cc2c1 | inconclusive: 0.339% | 
10 | N[C@H](CCC(=O)NCC(=O)O)C(=O)O | inactive: -8.76% | 
11 | COCCNC(=O)Cn1cnc2c1c(=O)n(C)c(=O)n2C | inconclusive: -8.51% [at 7.6 µM] | 
12 | CC1(C)CC(Nc2ccc(Nc3ccccc3)cc2)CC(C)(C)N1 | inactive: 3.97% [at 7.6 µM] | 
13 | COc1ccc(NC(=O)c2c(-c3ccccc3)noc2C)c(OC)c1 |  | inconclusive: 2 µM [rising, partial curve]
14 | O=C(O)CSC1CC(=O)N(c2ccc(Cl)c(Cl)c2)C1=O (stereo not drawn) | inconclusive: -13% | 
15 | Nc1c2c(nc3ccn(-c4ccccc4)c(=O)c13)CCCCC2 | inconclusive: 20.6% | 
16 | COC(=O)[C@@]1(Cc2ccc(F)cc2)[C@H]2c3cc(C(=O)N4CCCC4)n(Cc4cc(F)cc5c4OCOC5)c3C[C@H]2CN1C(=O)c1ccccc1 | inconclusive: 6.03% | 
17 | O=C1C=C(Nc2nc(C(=O)O)cc(=O)[nH]2)c2ccccc2C1=O | inactive: 6.18% [at 7.6 µM] | 
18 | O=c1c2c3nc4ccccc4nc3n(/N=C/c3ccco3)c2ncn1CCC1=CCCCC1 |  | inconclusive: 3.98 µM [rising, partial curve]
19 | CCCCc1nc2ccccc2n2cc3c(=O)n(C)c(=O)n(C)c3c12 |  | inconclusive: 2.51 µM [rising, partial curve]
20 | COc1ccc(C2CC(C(F)(F)F)n3ncc(C(=O)NCc4cccnc4)c3N2)cc1OC (stereo not drawn) |  | active: 12.6 µM
21 | O=C1c2ccccc2NC2CCCCCN12 (stereo not drawn) | inactive: 4.01% | 

Row | Compound | activity change, negative = inhibition | Potency
22 | O=c1c2cc(N3CCOCC3)ccc2[nH]c(=S)n1CCCN1CCCCC1 | inactive: -7.2% | 
23 | O=C(O)c1cccc(-n2cnnn2)c1 | inactive: -2.24% | 
24 | NS(=O)(=O)c1ccc(N=Nc2nc3[nH]c(=O)[nH]c(=O)c3[nH]2)cc1 | inactive: -3.7% [at 7.6 µM] | 
25 | O=C(Cn1nc(-c2ccccc2)c2ccccc2c1=O)Nc1ccc2c(c1)nc1n2CCOC1 | inconclusive: 15.6% | 
26 | O=C(O)c1cc(-c2ccc(-c3ccc(-c4cc(C(=O)O)c5cc(Cl)ccc5n4)cc3)cc2)nc2ccc(Cl)cc12 | inactive: 21.1% [at 7.6 µM] | 
27 | CN1/C(=C\C(=O)COC(=O)CN2C(=O)C3CC=CCC3C2=O)C(C)(C)c2ccccc21 (stereo not drawn) | inactive: 7.77% | 
28 | O=C(NC12CC3CC(CC(C3)C1)C2)N1CCN(S(=O)(=O)c2ccc(Cl)cc2)CC1 | inactive: -3.43% | 
29 | Cc1cc(C(F)(F)F)n2ncc(-c3ccccc3)c2n1 | inconclusive: 25.5% | 
30 | COc1cc(C)c(-c2cc(C(=O)O)c(C)o2)cc1C(C)C |  | inconclusive: 25.1 µM [rising, single point]
31 | CCOC(=O)N1CCN(c2ccc(C(=O)c3ccccc3)cc2F)CC1 | inconclusive: 26.5% [at 7.6 µM] | 
32 | O=C(CN1CCN(c2nc(-c3ccccc3)cs2)CC1)NCc1ccc2c(c1)OCO2 | inconclusive: -27.1% | 
33 | Cc1ccc(S(=O)(=O)N2CCN(C(=O)COC(=O)COc3ccccc3)CC2)cc1 | inconclusive: 8.67% | 
34 | Cc1nc(NCc2ccco2)c2oc3ccccc3c2n1 |  | active: 7.94 µM
35 | O=C(O)C12CC3(C(=O)O)CC(C(=O)O)(CC(C(=O)O)(C1)C3=O)C2=O | inactive: 3.41% [at 7.6 µM] | 
36 | Cn1c(=O)[nH]c(=O)c2c1nc(Sc1ncccn1)n2CCCc1ccccc1 | inconclusive: -25% | 
37 | Cn1c(N2CCC(C(N)=O)CC2)nc2c1c(=O)n(Cc1cccc(Br)c1)c(=O)n2C | inactive: -3.14% | 
38 | Fc1ccccc1N1CCN(C2CCN(Cc3c[nH]c4ccccc34)CC2)CC1 | inconclusive: -5.04% [at 7.6 µM] | 
39 | CN1C=CC=C/C1=C1\SC(=S)N(C2CCCCC2)C1=O | inconclusive: -13.3% [at 7.6 µM] | 
40 | N#Cc1ccccc1-c1nc(NCCN2CCOCC2)c2ccccc2n1 | inconclusive: 17.9% | 
41 | CC1(C)NC(C)(C)C(O)(C(N)=O)C1=O (stereo not drawn) | inconclusive: 0.425% | 
42 | CCN1C(=O)c2cccc3cccc1c23 |  | inconclusive: 5.01 µM [rising, partial curve]

Row | Compound | activity change, negative = inhibition | Potency
43 | Cc1cc2cc(CCNC(=O)c3ccc(Br)o3)c(=O)[nH]c2cc1C |  | inconclusive: 12.6 µM [rising, partial curve]
44 | O=C(c1cnccn1)N1CCC2(CCN(Cc3ccncc3)CC2)CC1 | inactive: -3.29% | 
45 | CCN1CCN(c2nc3ccccc3nc2C(C#N)C(=O)OCc2ccccc2)CC1 (stereo not drawn) | inconclusive: 11.7% | 
46 | COc1cc2c(C#N)c(N3CCc4ccccc4C3)nc(N)c2c(N)n1 |  | active: 0.631 µM
47 | CCn1c(CC(=O)Nc2cccc(OC)c2)nnc1SCC(=O)Nc1nccs1 | inconclusive: 30.1% | 
48 | CCOc1ccc(Cc2nc(-c3nonc3N)no2)cc1OCC |  | inconclusive: 10 µM [rising, partial curve]
49 | CCOC(=O)c1cc2c(=O)n3cccc(C)c3nc2n(Cc2ccccc2Cl)c1=N | inconclusive: 22.7% | 
50 | O=C1Nc2ccc(S(=O)(=O)NCc3ccccn3)c3cccc1c23 |  | inconclusive: 20 µM [rising, single point]
51 | N#Cc1ccccc1NC(=O)c1ccccc1OCC(=O)Nc1ccc2c(c1)oc1ccccc12 | inactive: -6.31% | 
52 | CCOC(=O)CSc1nnc(NCC(=O)OC(C)C)c(=O)[nH]1 |  | inconclusive: 12.6 µM [falling, partial curve]
53 | O=C(OCc1cc(=O)n2c(n1)sc1ccccc12)c1ccc2c(=O)n3c(nc2c1)CCC3 |  | inconclusive: 12.6 µM [rising, partial curve]
54 | Cc1c(C(=O)O)oc2c1C(O)CCC2 (stereo not drawn) | inactive: 2.59% | 
55 | CCOC(=O)c1cnc(-c2cccc(OC)c2)[nH]c1=O | inconclusive: -0.981% | 
56 | CCOc1cc2[nH]c(=O)n(CCc3ccc(OC)c(OC)c3)c(=O)c2cc1OCC | inconclusive: -17.2% | 
57 | Cc1ccc(-n2ncc3c(=O)n(CC(=O)N4CCCCCC4)cnc32)cc1 |  | inconclusive: 20 µM [rising, single point]
58 | CCOC(=O)C1=C(C)OC(N)=C(C#N)C1c1c(C)nn(-c2ccccc2)c1Cl (stereo not drawn) | inconclusive: -20% | 
59 | O=C(CCCn1c(SCC(=O)NC2CCCCC2)nc2ccccc2c1=O)NCC1CCCO1 (stereo not drawn) | inactive: -15.3% | 
60 | COCCn1c(N)c(C(=O)OCc2ccccc2)c2nc3ccccc3nc21 |  | active: 10 µM
61 | O=C(CSC1=NCCS1)N1CCCC1 | inconclusive: -22.9% | 
62 | CN(C)c1ccc(-c2nc(NCCN3CCOCC3)c3ccccc3n2)cc1 | inconclusive: 30% | 
63 | COc1ccccc1CNc1cc(-c2ccccc2OC)ncn1 | inconclusive: -26% | 

Row | Compound | activity change, negative = inhibition | Potency
64 | CCCCCCCCOc1ccc(C(=O)O)cc1 |  | inconclusive: 25.1 µM [rising, partial curve]
65 | CCOC(=O)c1cc(C)sc1NC(=O)C1CCC1 |  | inconclusive: 12.6 µM [rising, partial curve]
66 | CCSc1nnc2c(n1)OC1(CCCC1)Nc1ccccc1-2 |  | inconclusive: 25.1 µM [rising, single point]
67 | CCCCCNC(=O)C(C#N)c1nc2ccccc2nc1N1CCCC1 (stereo not drawn) |  | inconclusive: 5.01 µM [falling, single point]
68 | Cc1ccc(N2C(=O)CSC2c2cccs2)cc1 (stereo not drawn) | inconclusive: -15.2% | 
69 | CCOC(=O)c1cc2sc(C)cc2n1CC(=O)N1CCN(C(=O)c2ccco2)CC1 | inconclusive: 0.67% | 
70 | Nc1ccccc1N=Nc1c(S(=O)(=O)O)cc2cc(S(=O)(=O)O)cc(O)c2c1O | inactive: -2.06% [at 7.6 µM] | 
71 | Nc1ncnc2oc(-c3ccco3)c(-c3ccco3)c12 | inactive: 1.64% | 
72 | N#CCCn1c(=O)c(-c2ccc(F)cc2)nc2cnc(N3CCOCC3)nc21 |  | active: 0.398 µM
73 | COc1cc2[nH]c(=S)nc(NCC3CCCO3)c2cc1OC (stereo not drawn) | inconclusive: 17.5% | 
74 | O=C(NCc1ccccc1)N(Cc1cc2cc3c(cc2[nH]c1=O)OCO3)CC1CCCO1 (stereo not drawn) | inactive: 3.5% | 
75 | N#Cc1cccc(-c2nccc(NCc3ccccc3)n2)c1 | inconclusive: 25.6% | 
76 | Cc1ccc(N2C(=O)CSC2c2cccnc2)cc1F (stereo not drawn) | inconclusive: -22% | 
77 | c1ccc2c(c1)CCN(c1nc3cc4c(cc3s1)OCO4)C2 | inactive: 10.1% | 
78 | c1ccc(-c2nc(N3CCCCCC3)nc(-n3ccnc3)n2)cc1 | inactive: 14.9% | 
79 | CCCCC#Cc1nc(NC)c2ncn([C@@H]3O[C@@H](CO)[C@H](O)[C@H]3O)c2n1 |  | active: 20 µM
80 | COc1cccc(-c2cc(C(F)(F)F)nc(N3CCOCC3)n2)c1 | inactive: 19.2% | 
81 | c1ccc(N2CCN(c3ncnc4c3oc3ccccc34)CC2)cc1 |  | inconclusive: 25.1 µM [falling, single point]
82 | CCC(C)NC(=O)c1c(N)n(/N=C/c2cccnc2)c2nc3ccccc3nc12 (stereo not drawn) |  | active: 0.631 µM
83 | COc1ccc(-c2nsc(SCC(=O)Nc3cc(C)on3)n2)cc1 | inconclusive: -12.4% | 
